According to PubChem BioAssay AID445 (National Center for Advancing Translational Sciences (NCATS), 2006):
About 40 (0.04%) of roughly 110,000 compounds were called active. The shares of active, inactive and inconclusive entries below differ from those in the screen. Calls come from the whole dose curve; as a rule, active = well fitted curve in the direction sought with a large enough effect in the signal ratio (not every such curve was filed as active); inconclusive = small, poorly fitted or top-dose-only effect, or a change in a side signal; inactive = flat fitted curve, though single readings scatter; the % refers to the signal ratio. Where the call is inconclusive, the potency comes from a doubtful curve fit.
Potency is the fitted concentration of half-maximal effect.

Assay: IkB Signaling;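 for IkBa stabilization activation: 0% = basal untreated cells and 100% = reference inhibitor full response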
Conditions: ABC-DLBCL IkBa-CBG/CBR dual luciferase ratio (green luciferase fused to IkBa over red control in OCI-Ly3 lymphoma cells), 4 h; IkBa stabilization activation: at 57.1 µM (top of the series), scaled: untreated 0%, proteasome inhibitor 100% unless noted
In short: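 In this assay, an IκBα–CBG68 fusion accumulates when IKK-driven degradation is blocked; native CBR normalizes for cell number. OCI-Ly3 cells were treated 4 h with compound and doxycycline, then green and red light read after Chroma-Glo addition.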
For `Cc1ccccc1Cn1cc(S(=O)(=O)c2ccc(Cl)cc2)c(=O)c2cc3c(cc21)OCO3`, the IkBa stabilization activation was inconclusive: 3.25% [signal inhibitor].
In the case of `C=CCn1c(SCC(=O)Nc2ccc(N(C)C)cc2)nnc1-c1cccc(C)c1`, the IkBa stabilization activation is reported as “inactive”.
For `COc1cccc(N2CCN(C(=O)C3CCCN(S(=O)(=O)c4ccc(Br)s4)C3)CC2)c1` (centres undefined), the IkBa stabilization activation was inconclusive: 13% [signal inhibitor].
For `CC(=O)N1CCN(c2ccc(Oc3ncnc4sccc34)cc2)CC1`, the IkBa stabilization activation was inconclusive: 0.598% [signal inhibitor].
For `Cc1ccc(NC(=O)c2ccc(NC(=O)N3CCSc4ncccc43)cc2)cc1Cl`, the IkBa stabilization activation was inconclusive: -4.02% [signal inhibitor].
With `CCc1ccc(-n2nc3cc(C)c(NC(=O)c4cc(Cl)ccc4OC)cc3n2)cc1` the IkBa stabilization activation was “inactive”.
In the case of `C=CCn1c(SCC(=O)c2cc(C)n(Cc3cccs3)c2C)nnc1-c1ccncc1`, the IkBa stabilization activation is reported as inconclusive: 1.52% [signal inhibitor].
In the case of `COc1ccc(NS(=O)(=O)c2cc3[nH]c(=O)c(=O)[nH]c3cc2C)cc1OC`, the IkBa stabilization activation is reported as “inactive”.
In the case of `CCCN(C(=O)Cn1ncc2c(=O)oc3ccccc3c21)c1cccc(C)c1`, the IkBa stabilization activation is reported as inconclusive: 2.81% [signal inhibitor].
In the case of `CCCCOC(=O)c1ccc(NS(=O)(=O)c2c(C)nc3scc(C)n3c2=O)cc1`, the IkBa stabilization activation is reported as inconclusive: 19.1% [signal inhibitor].
In the case of `Cc1ccc(CNC(=O)Cn2ncc3c(C)n(Cc4ccc(Cl)cc4)c(C)c3c2=O)cc1`, the IkBa stabilization activation is reported as inconclusive: 1.23% [signal inhibitor].
In the case of `COc1ccccc1Nc1cc(C)nc2nc(-c3ccccc3)nn12`, the IkBa stabilization activation is reported as inconclusive: 1.46% [signal inhibitor].
With `CCC(C)NC(=O)Cn1c(=O)n(Cc2ccc(C(=O)NCCCOC)cc2)c(=O)c2ccccc21` (centres undefined) the IkBa stabilization activation was “inactive”.
In the case of `COC(=O)C1=C(N)OC2=C(C(=O)CC(C)(C)C2)C1c1cccs1` (centres undefined), the IkBa stabilization activation is reported as “inactive”.
With `Cc1ccc(NC(=O)c2c(N3CCCC3=O)c3cc(C)ccc3n2C)c(C)c1` the IkBa stabilization activation was inconclusive: -0.059% [signal inhibitor].
In the case of `COCCn1c(SCC(=O)Nc2cccc(C(=O)OC)c2)nc2ccccc2c1=O`, the IkBa stabilization activation is reported as “inactive”.
For `COc1cc(C2C(=O)N(C3CCCCC3)CC(=O)N2C2CCCCC2)ccc1OC(C)C` (centres undefined), the IkBa stabilization activation was “inactive”.
In the case of `O=C(CCSCCc1ccccn1)Nc1nccs1`, the Potency is reported as inconclusive: 20 µM [signal inhibitor, partial curve].
For `CCOc1ccc(N(CC)C(=O)c2cc3c(s2)-c2ccccc2OC3)cc1`, the IkBa stabilization activation was inconclusive: -0.376% [signal inhibitor].
In the case of `COc1cccc(N2CCN(C(=O)c3nn(C)c4c3CSc3ccc(C)cc3-4)CC2)c1`, the IkBa stabilization activation is reported as inconclusive: 9.74% [signal inhibitor].
For `CCC(=O)N1CCc2cc(CNC(=O)c3ccc(F)cc3)ccc21`, the IkBa stabilization activation was “inactive”.
In the case of `Cc1ccc(-c2nc3sccn3c2Nc2ccc(C)c(C)c2)cc1`, the IkBa stabilization activation is reported as inconclusive: 0.686% [signal inhibitor].
With `COc1cccc(-c2nn(-c3ccccc3)cc2C(=O)NCC(=O)O)c1` the IkBa stabilization activation was “inactive”.
In the case of `CCC(C(=O)Nc1cc(F)ccc1F)n1nc(C)c2c(C)n(-c3ccc(C)cc3)nc2c1=O` (centres undefined), the IkBa stabilization activation is reported as inconclusive: -2.93% [signal inhibitor].
In the case of `CCc1c(O)nc(SCC(=O)Nc2ccc(C)cc2)n(C2CCCCC2)c1=O`, the Potency is reported as inconclusive: 12.6 µM [signal inhibitor, partial curve].
With `CCc1ccccc1NC(=O)c1noc2c1CC(C(C)(C)C)CC2` (centres undefined) the IkBa stabilization activation was inconclusive: 4.93% [signal inhibitor].
For `Cc1cccc(NC(=O)C(=O)NCCc2csc(-c3ccc(F)cc3)n2)c1C`, the IkBa stabilization activation was inconclusive: -2.64% [signal inhibitor].
For `Cc1cc(C)c2c(=O)cc(CSc3n[nH]c(C)n3)[nH]c2c1`, the IkBa stabilization activation was “inactive”.
For `Cc1cc(N2CCCCC2)nc2ccc(NC(=O)CCC(=O)N3CCN(c4ccccc4)CC3)cc12`, the IkBa stabilization activation was inconclusive: 11.5% [signal inhibitor].
In the case of `O=C(CSCc1ccc(F)cc1)N1CCc2c([nH]c3ccccc23)C1c1ccc(Cl)cc1` (centres undefined), the IkBa stabilization activation is reported as inconclusive: -1.85% [signal inhibitor].
In the case of `COc1ccc(NC(=O)CN2C(=O)c3cccnc3Sc3ccccc32)cc1OC`, the IkBa stabilization activation is reported as inconclusive: 2.44% [signal inhibitor].
In the case of `Cc1cccc(N2CCN(C(=O)c3ccc(Nc4nc5ccccc5n5nnnc45)cc3)CC2)c1C`, the Potency is reported as inconclusive: 7.94 µM [signal inhibitor, partial curve].
With `CCN1CCN(C(=O)N[C@H](C(=O)N[C@@H]2C(=O)N3C(C(=O)O)=C(CSc4nnnn4C)CS[C@@H]23)c2ccc(O)cc2)C(=O)C1=O` the IkBa stabilization activation was “inactive”.
For `CC1=C(C(=O)Nc2cc(Cl)ccc2C)C(c2cccs2)n2ncnc2N1` (centres undefined), the IkBa stabilization activation was inconclusive: 2.49% [signal inhibitor].
In the case of `CN1CCN(c2ncc3nc(CCc4ccccc4)c(=O)n(C)c3n2)CC1`, the IkBa stabilization activation is reported as inactive: -2.08% [at 11.4 µM, scaled: untreated 0%, proteasome inhibitor 100%].
In the case of `CC1CCN(C(=S)c2ccccc2O)CC1`, the IkBa stabilization activation is reported as inconclusive: 4.6% [signal inhibitor].
In the case of `CCn1c(COc2ccccc2C)nnc1SCC(=O)CC(=O)Nc1ccccc1OC`, the IkBa stabilization activation is reported as inconclusive: 13.8% [signal inhibitor].
In the case of `CCNc1ncc2nc(-c3ccc(Cl)cc3)c(=O)n(CCC#N)c2n1`, the IkBa stabilization activation is reported as inactive: 0.261% [at 11.4 µM, scaled: untreated 0%, proteasome inhibitor 100%].
With `Cn1c(=O)cc(SCC(=O)N2CCN(c3ccccc3F)CC2)c2ccccc21` the IkBa stabilization activation was inconclusive: -0.668% [signal inhibitor].
In the case of `O=C(Nc1ccc2c(c1)OCO2)C1CCCN1C(=O)OCc1ccccc1` (centres undefined), the IkBa stabilization activation is reported as “inactive”.
In the case of `CCOc1ccc(NC(=O)CC2C(=O)N(c3cccc(C)c3)C(=O)N2Cc2cccs2)cc1` (centres undefined), the IkBa stabilization activation is reported as inconclusive: 0.458% [signal inhibitor].
With `CCCN1CCN(CCCNC(=O)c2ccc3nc(Cc4ccccc4)oc3c2)CC1` the IkBa stabilization activation was inconclusive: -1.63% [signal inhibitor].
For `CCCCN1CC(c2nc3ccccc3n2CCCCOc2cccc(C)c2C)CC1=O` (centres undefined), the IkBa stabilization activation was “inactive”.
In the case of `CCOc1ccc(CN(CCc2ccc3c(c2)OCO3)Cc2cc(OC)c(OC)cc2OC)cc1`, the IkBa stabilization activation is reported as inconclusive: 5.48% [signal inhibitor].
For `COc1cc(NC(=O)CCc2c(C)nn(-c3ccc(N4CCCCC4)nn3)c2C)cc(OC)c1OC`, the IkBa stabilization activation was inconclusive: 0.839% [signal inhibitor].
In the case of `C[C@H](O)[C@H](O)[C@@H]1CNc2nc(N)[nH]c(=O)c2N1`, the IkBa stabilization activation is reported as “inactive”.
With `C/C(N)=C(/C#N)C(=O)CSc1nnc(Nc2c(C)cccc2C)s1` the IkBa stabilization activation was “inactive”.
With `CCOc1ccc2nc(N3CCOCC3)nc(C)c2c1` the IkBa stabilization activation was “inactive”.
With `COc1ccc(NCC(=O)Nc2ccc(Cl)cc2C)c(OC)c1` the IkBa stabilization activation was inconclusive: 3.7% [signal inhibitor].
For `NC(=O)C1(N2CCCCC2)CCN(CC(=O)Nc2ccc(Oc3ccccc3)cc2)CC1`, the IkBa stabilization activation was inconclusive: 2.69% [signal inhibitor].
With `O=c1c(-c2ccccc2)nc2cnc(N3CCOCC3)nc2n1C1CC1` the IkBa stabilization activation was inactive: -0.94% [at 11.4 µM, scaled: untreated 0%, proteasome inhibitor 100%].
For `CCCN(Cc1cc2cc(C)ccc2[nH]c1=O)C(=O)c1cccc(OC)c1`, the IkBa stabilization activation was inconclusive: 7.75% [signal inhibitor].
In the case of `CN(Cc1ccco1)c1cc(-c2cccc(C#N)c2)ncn1`, the IkBa stabilization activation is reported as inactive: -0.819% [at 11.4 µM, scaled: untreated 0%, proteasome inhibitor 100%].
For `COc1ccc(OC)c(NC(=O)[C@H](CSCc2ccccc2)N2Cc3ccccc3C2=O)c1`, the IkBa stabilization activation was “inactive”.
For `COC(=O)c1cc2sc(Cl)cc2n1CC(=O)Nc1cc(C)cc(C)c1`, the IkBa stabilization activation was inconclusive: 3.94% [signal inhibitor].
For `COC(=O)c1c(N)n(-c2ccc(OC)c(OC)c2)c2nc3ccccc3nc12`, the IkBa stabilization activation was inconclusive: 0.838% [signal inhibitor].
For `CCc1nnc(NC(=O)CSc2nc3c(cc2C#N)CCC3)s1`, the IkBa stabilization activation was “inactive”.
With `CS(=O)(=O)N(CCc1ccccc1)CC(=O)Nc1ccc2c(c1)OCO2` the IkBa stabilization activation was inconclusive: 1.33% [signal inhibitor].
With `O=C(CSc1nc2ccccc2o1)NCc1ccc2c(c1)OCO2` the IkBa stabilization activation was inconclusive: 8.75% [signal inhibitor].
For `CCOc1cccc2sc(N(Cc3cccnc3)C(=O)c3ccc(C#N)cc3)nc12`, the IkBa stabilization activation was inconclusive: 4.21% [signal inhibitor].
In the case of `CCCOc1cccc(C(=O)Nc2cc(NC(=O)c3ccco3)ccc2OC)c1`, the IkBa stabilization activation is reported as inconclusive: 9.4% [signal inhibitor].
For `Cc1c(CC(=O)NCc2ccc(F)cc2)c(=O)oc2cc(O)c(Cl)cc12`, the IkBa stabilization activation was inconclusive: 1.71% [signal inhibitor].
With `O=C(NCc1ccccc1Cl)c1ccc2oc(=O)n(Cc3ccccc3)c2c1` the IkBa stabilization activation was inconclusive: 1.7% [signal inhibitor].
With `Cc1cc(C)n(-c2nc3ccccc3nc2N2CCN(c3cccc(C(F)(F)F)c3)CC2)n1` the IkBa stabilization activation was inconclusive: 5.48% [signal inhibitor].
In the case of `C=C(C)C(=O)OC`, the IkBa stabilization activation is reported as “inactive”.
For `Cc1cccc(-n2nc(C)c(C(=O)Nc3cc(C)ccc3C)c2-n2cccc2)c1`, the IkBa stabilization activation was inconclusive: 5.81% [signal inhibitor].
With `Cc1cc(C2N=C(N)Nc3nc4ccccc4n32)c(C)n1-c1ccccc1Cl` (centres undefined) the IkBa stabilization activation was “inactive”.
With `CC(C)(C)OC(=O)N1CCC[C@H]1c1nnc(SCc2ccc(Cl)cc2Cl)o1` the IkBa stabilization activation was inconclusive: 1.23% [signal inhibitor].
For `COc1ccccc1N1CCN(C(=O)c2ccc(S(=O)(=O)N3CCCCCC3)cc2)CC1`, the IkBa stabilization activation was inconclusive: 1.62% [signal inhibitor].
